# From article PMC4336329 (PLoS ONE, 2015)
# About 14,000 (4.5%) of roughly 310,000 compounds showed an effect of 50% or more. Effects have a minus sign here. This is one part of the list.
# Target: human ether-à-go-go-related gene (hERG) potassium channel (human, UniProt Q12809)
# Test: primary screen, population patch clamp on CHO cells stably expressing hERG
# 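Also: peak tail current of the secondary pulse compared with the same well before compound.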
# Sequence of human ether-à-go-go-related gene (hERG) potassium channel (Q12809 whole entry, looked up): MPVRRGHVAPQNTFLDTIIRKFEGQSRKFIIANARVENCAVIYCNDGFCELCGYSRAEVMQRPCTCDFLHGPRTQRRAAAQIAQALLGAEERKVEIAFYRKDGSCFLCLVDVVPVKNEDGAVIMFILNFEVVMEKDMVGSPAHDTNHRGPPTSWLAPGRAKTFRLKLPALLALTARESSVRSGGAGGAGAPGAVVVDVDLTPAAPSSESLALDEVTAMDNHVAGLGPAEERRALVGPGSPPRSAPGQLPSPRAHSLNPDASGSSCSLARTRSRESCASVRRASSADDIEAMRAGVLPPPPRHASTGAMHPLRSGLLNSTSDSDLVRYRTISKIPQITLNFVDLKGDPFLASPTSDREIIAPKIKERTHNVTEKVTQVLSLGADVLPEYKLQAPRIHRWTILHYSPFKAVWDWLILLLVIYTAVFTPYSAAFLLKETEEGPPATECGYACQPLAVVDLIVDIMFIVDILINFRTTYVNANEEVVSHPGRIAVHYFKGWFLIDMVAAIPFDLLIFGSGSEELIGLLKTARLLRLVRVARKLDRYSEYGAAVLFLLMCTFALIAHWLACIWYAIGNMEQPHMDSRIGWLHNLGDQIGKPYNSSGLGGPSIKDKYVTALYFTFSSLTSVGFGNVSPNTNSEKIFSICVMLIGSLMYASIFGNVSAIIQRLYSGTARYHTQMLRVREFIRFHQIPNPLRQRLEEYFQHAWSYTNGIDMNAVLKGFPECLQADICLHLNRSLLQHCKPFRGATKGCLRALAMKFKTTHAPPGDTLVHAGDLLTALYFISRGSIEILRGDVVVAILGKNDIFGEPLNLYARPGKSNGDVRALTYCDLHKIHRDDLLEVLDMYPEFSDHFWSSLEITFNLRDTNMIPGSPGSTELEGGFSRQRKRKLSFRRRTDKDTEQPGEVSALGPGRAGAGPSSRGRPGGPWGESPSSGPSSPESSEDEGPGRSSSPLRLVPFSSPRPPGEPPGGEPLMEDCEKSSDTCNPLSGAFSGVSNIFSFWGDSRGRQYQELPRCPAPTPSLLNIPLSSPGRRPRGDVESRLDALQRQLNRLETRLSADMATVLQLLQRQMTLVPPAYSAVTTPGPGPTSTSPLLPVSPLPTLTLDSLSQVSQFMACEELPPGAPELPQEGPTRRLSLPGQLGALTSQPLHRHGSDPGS
row,SMILES,"hERG current change (%, negative = inhibition) at 10uM"
1,COc1ccccc1C1CCN(Cc2cccc(C(=O)N3CCC(O)CC3)c2)CC1,19.3%
2,Cc1ccc(C)c(SCC(=O)NNC(=O)c2ccccc2)c1,9.78%
3,O=C(CSc1nnc(-c2ccccn2)n1Cc1ccco1)Nc1ccc2c(c1)OCO2,-16.4%
4,CC(C(=O)c1ccc(-c2ccccc2)cc1)[n+]1cccc(C(N)=O)c1.[Br-] (centres unmarked),21.8%
5,CCC(C)c1ccc(OCc2ccc(C(=O)O)o2)cc1 (centres unmarked),3.32%
6,CN(C)c1nc(N)nc(Nc2ccccc2C#N)n1,11.3%
7,CCN(CC)C(=O)C1CCCc2c1[nH]c1ccc(Cl)cc21 (centres unmarked),-13.8%
8,CC(/C=N/N1CCN(Cc2ccccc2)CC1)=C\c1ccccc1,22.6%
9,O=C(CSc1ncc(-c2ccccc2)[nH]1)Nc1ccccc1F,-9.84%
10,CC(C)(C)NC(=O)C(c1ccncc1)N(C(=O)Cn1nnc(-c2ccc(F)cc2)n1)c1cccc(F)c1 (centres unmarked),15.4%
11,O=C(Nc1ccncc1)c1cc(S(=O)(=O)N2CCCCC2)ccc1Cl,-56.2%
12,C=CCOc1cccc(/C=N/NC(=O)C(OC)c2ccccc2)c1 (centres unmarked),5.18%
13,CCCCNC(=O)O[C@@H]1C[C@@H]2CCN3C(=O)CCC[C@H]([C@H]1CC)[C@H]23,1.52%
14,Cc1cc(C)n(/N=C/c2c[nH]c3ccccc23)c(=O)c1C#N,2.66%
15,O=C(O)COc1ccc(-c2nc(-c3ccccc3)c(-c3ccccc3)[nH]2)cc1,15.5%
16,CCOC(=O)c1cc(-c2ccccc2)nn1CC1CC(c2cccnc2)=NO1 (centres unmarked),3.47%
17,CNCC(O)c1cc(OCc2ccccc2)c(OCc2ccccc2)cc1F (centres unmarked),-31.2%
18,O=C(CSC(=S)N1CCCCC1)Nc1ncc2c(n1)CCCC2=O,-11.7%
19,Fc1ccc(-c2csc(=S)[nH]2)cc1,11.1%
20,c1ccc(C2OCCN3CCCCC23)cc1 (centres unmarked),-0.48%

row,SMILES,"hERG current change (%, negative = inhibition) at 10uM"
1,Cn1c(SCc2cc(=O)[nH]c3ccccc23)nnc1-c1ccco1,19.7%
2,COc1cccc(CNS(=O)(=O)c2ccc(N3CCCC3=O)cc2)c1,-5.35%
3,O=C(NC1CCCC1)c1cc(-c2ccc(Cl)c(Cl)c2)on1,15.6%
4,CCN(CC)c1ccc(/C=N/NC(=O)OC)c(O)c1,-9.74%
5,CCCCn1nc2cc(C(=O)NCC3CC3)ccc2c1OCC,-14.9%
6,CCCOc1cccc(C(=O)NCCCNC(=O)c2ccccn2)c1,5.91%
7,O=C(Nc1cc2c(cc1Br)OCCO2)c1ccco1,33.1%
8,CS(=O)(=O)Nc1ccccc1C(=O)NCCSc1ccccc1,7.72%
9,CCOC(=O)N1CCC(N(CCCOC)C(=O)Nc2ccc(CC)cc2)CC1,-48.6%
10,Cc1c(Cc2ccccc2)sc(/N=C/c2ccc3ccccc3c2)c1C(N)=O,6.83%
11,COc1ccc([N+](=O)[O-])cc1N(CC(=O)N1CCOCC1)S(C)(=O)=O,19.2%
12,COc1c(Cl)cc(C(=O)Nc2ccccc2-c2ccccc2)cc1Cl,0.345%
13,O=C(O)c1ccc(Cl)c(S(=O)(=O)Nc2ccc(S(=O)(=O)Nc3cccc(Cl)c3)cc2)c1,16.1%
14,C=CCn1c(N)c(C(=O)OCC)sc1=S,3.45%
15,Nc1ccc(OCCc2ccccc2)cc1,11.4%
16,O=C(CCN1C(=O)/C(=C/c2ccccc2F)SC1=S)NC1C=CS(=O)(=O)C1 (centres unmarked),15.3%
17,COC(=O)C1=C(c2cccc(C#N)c2)C[C@@H]2CC[C@H]1N2C(=O)N1CCC(C)CC1,-17.1%
18,CC1CCN(C(=S)NCCc2ccccc2)CC1,-15.2%
19,O=C(Nc1cnn(Cc2ccccc2)c1)NC12CC3CC(CC(C3)C1)C2,10.3%
20,COC(=O)CCC/C=C1/SCC(NC(=O)c2ccccc2)/C1=N/O (centres unmarked),3.06%

row,SMILES,"hERG current change (%, negative = inhibition) at 10uM"
1,CCCNC(=O)c1cc(-c2ccc(OC)cc2)on1,-0.519%
2,COCC(=O)Nc1ccc(OC)c(Cl)c1,-5.34%
3,Oc1ccccc1N1CCN(Cc2ncc(-c3ccccc3)o2)CC1,-21.7%
4,COC(=O)c1c(NC(=S)Nc2ccc(F)cc2[N+](=O)[O-])sc2c1CCCCC2,4.46%
5,Cc1cnc(NC(=O)CSc2nnc(N)s2)s1,30.9%
6,O=c1c(Cc2ccc(F)cc2)c(O)ccn1Cc1cccc(Cl)c1,6.07%
7,Cl.OCCN1CCN(CC(O)COc2ccc(C34CC5CC(CC(C5)C3)C4)cc2)CC1 (centres unmarked),-7.09%
8,CC(C)c1nc2sc3c(=O)[nH]c(=S)[nH]c3c2c2c1CCCC2,31.2%
9,O=C1C=C(c2ccc(OC(F)(F)F)cc2)C[C@@H](c2ccc(F)cc2)C1,-11.3%
10,CC(C)n1nccc1NS(=O)(=O)c1ccccc1,4.04%
11,CCN(CCCNC(=O)COc1cc(=O)n(C)c2ccccc12)c1ccccc1,-41.3%
12,CC(C)CNC(=S)N(CCCO)Cc1cc2cc3c(cc2[nH]c1=O)OCCO3,16%
13,COc1cccc(NC(=O)c2cc3ccccc3o/c2=N\O)c1,-16.1%
14,O=C(CCc1nc(-c2ccc(Cl)cc2)no1)NC1CCCCC1,14.7%
15,COc1cccc(NC(=O)NC2(C(=O)N3CCN(C)CC3)CCCCC2)c1,9.31%
16,COc1ccc(Oc2coc3cc(OCC(=O)N4CCCCC4)ccc3c2=O)cc1,-13.2%
17,COP(=O)(Cc1ccc(C#N)o1)OC,10%
18,CC(=O)N1N=C(c2cccc(NS(C)(=O)=O)c2)CC1c1ccc2c(c1)OCO2 (centres unmarked),-59.2%
19,Nc1cc(N)nc(SCc2ccc(Cl)cc2)n1,-6.03%
